Laboratory results taken from PubChem BioAssay AID1768 (National Center for Advancing Translational Sciences (NCATS), 2009).
“And” between values parts separate entries of the source, which are not always exact repeats. Identical values can stand only once. Screen size: about 270,000 compounds; about 620 (0.23%) were called active. The inconclusive results got no clear call from the source; some entries with a clear call stand among them for comparison. Calls come from the whole dose curve; as a rule, active = well fitted inhibition curve with a large enough effect in the polarisation, with a control signal flat (not every such curve was filed as active); inconclusive = small, poorly fitted or top-dose-only effect, or effect the other way, or a change in a side signal; inactive = no such curve, though single readings can be large or run the other way; the % refers to the polarisation. Potencies beside an inconclusive call are fits to weak or partial responses and may not hold up. A note “side channel” means that the fit belongs to a control or component signal, not to the main read-out.

Each compound was assayed against Menin (Homo sapiens) (UniProt O00255) (assay: qHTS Assay for Inhibitors Targeting the Menin-MLL Interaction in MLL Related Leukemias: Competition With Texas Red Labeled MLL-derived Mutant Peptide). Details: fluorescence polarization; FP activity change, negative = inhibition: at 61.6 µM (top of the series).
Potency is the fitted concentration of half-maximal effect; tags give direction and shape of the fitted curve or compound fluorescence and quenching.
Throughout, for FP activity change, negative = inhibition: % of control where 0% means no effect.

UniProt O00255, sequence (O00255 whole entry, looked up): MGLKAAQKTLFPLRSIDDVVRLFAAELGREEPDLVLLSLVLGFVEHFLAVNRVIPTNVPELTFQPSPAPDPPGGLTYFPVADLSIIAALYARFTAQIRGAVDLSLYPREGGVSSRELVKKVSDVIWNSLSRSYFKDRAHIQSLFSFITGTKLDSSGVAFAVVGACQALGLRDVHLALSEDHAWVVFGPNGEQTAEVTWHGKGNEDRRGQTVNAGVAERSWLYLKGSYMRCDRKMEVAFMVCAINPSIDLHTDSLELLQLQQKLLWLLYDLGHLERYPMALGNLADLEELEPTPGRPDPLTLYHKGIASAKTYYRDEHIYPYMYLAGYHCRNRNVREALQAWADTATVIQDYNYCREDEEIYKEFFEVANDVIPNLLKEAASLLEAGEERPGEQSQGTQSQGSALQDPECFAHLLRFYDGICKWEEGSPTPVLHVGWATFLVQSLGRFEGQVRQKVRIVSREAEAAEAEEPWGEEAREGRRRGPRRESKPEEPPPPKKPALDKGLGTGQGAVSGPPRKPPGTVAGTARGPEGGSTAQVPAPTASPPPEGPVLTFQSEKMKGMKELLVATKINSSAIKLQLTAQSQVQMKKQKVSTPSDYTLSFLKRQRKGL

Potency, inconclusive:
CCc1nnc(NC(=O)c2ccc(S(=O)(=O)N3CCCC(C)C3)cc2)o1 (configuration not stated) 17.8 µM [quencher, side channel, single point]
COc1ccc(OC)c(NC(=O)c2ccc(NS(=O)(=O)c3c(C)noc3C)cc2)c1 25.1 µM [quencher, side channel, partial curve]
CCOc1ccc(NC(=O)COC(=O)Cc2ccc(S(=O)(=O)N3CCOCC3)s2)cc1 17.8 µM [quencher, side channel, partial curve]
Cc1ccc(C2=NNC(=Nc3ccc(F)cc3)SC2)cc1 25.1 µM [quencher, side channel, single point]
COCCN=c1scc(-c2cccs2)n1/N=C(\C)c1ccco1 25.1 µM [quencher, side channel, single point]
NS(=O)(=O)c1ccc(CNC(=S)NCc2ccc(Cl)cc2)cc1 39.8 µM [quencher, side channel, single point]
CC1CCCCN1CC(=O)Nc1ccc(Oc2ccccc2)cc1 (configuration not stated) 25.1 µM [fluorescent, side channel, single point]
CCC(=O)Nc1ccc(NC(=O)c2cc3ccccc3o2)cc1 39.8 µM [quencher, side channel, single point]
Cc1ccccc1NS(=O)(=O)c1ccc2[nH]cc(C(=O)N(C)Cc3ccco3)c(=O)c2c1 39.8 µM [quencher, side channel, single point]
CC(=O)c1ccc(NC(=O)Nc2ccc(NS(=O)(=O)c3ccc(C)cc3)cc2)cc1 2.24 µM [quencher, side channel, full curve]
Cc1ccc(/C=C/C(=O)Nc2ccc(S(=O)(=O)Nc3ncccn3)cc2)cc1 31.6 µM [fluorescent, side channel, single point]
CC(C)c1c(C(=O)N/N=C/c2ccc3c(c2)OCO3)nnn1-c1nonc1N 11.2 µM [quencher, side channel, partial curve]
C/C(Cl)=C\Cn1c(N2CCCC2)nc2c1c(=O)[nH]c(=O)n2C 39.8 µM [inhibitor, single point]
O=S(=O)(c1ccccc1)N1CCN(C(c2ccccc2)c2ccc(OC(F)(F)F)cc2)CC1 (configuration not stated) 14.1 µM [fluorescent, side channel, partial curve]
O=C(Nc1cc(NC(=O)c2ccccc2)c(C(=O)O)cc1C(=O)O)c1ccccc1 4.47 µM [inhibitor, full curve] and 3.98 µM [inhibitor, full curve]
O=C1N(Cc2cccc(Cl)c2)C[C@@H]2C[C@@H](c3cccn3-c3cccnc3)N3CCC[C@@]123 2.51 µM [fluorescent, side channel, partial curve]
C/C(=N\NC(=O)COc1ccc2ccccc2c1)c1cccs1 39.8 µM [quencher, side channel, single point]
COc1cc(CC(=O)OCC(=O)Nc2sccc2C(N)=O)cc(OC)c1OC 20 µM [quencher, side channel, partial curve]
COc1ccc(-c2cc(-c3c(O)c(OC)c4occc4c3OC)[nH]n2)cc1 25.1 µM [quencher, side channel, single point]
Cc1cccc(C(=O)OCC(=O)N(C)c2ccccc2)c1C 10 µM [fluorescent, side channel, partial curve]
Cc1ccc2nc(N(CCCN(C)C)C(=O)CN3C(=O)c4ccccc4C3=O)sc2c1 4.47 µM [fluorescent, side channel, full curve, poor fit]
COc1cccc2c1OCC([C@@H]1C[C@H]3CN(Cc4cccc(Cl)c4)C(=O)[C@]34CCCN14)=C2 3.55 µM [fluorescent, side channel, full curve, poor fit]
CC(=O)Nc1ccc(N2CCN(Cc3ccccc3F)CC2)cc1 20 µM [inhibitor, partial curve, poor fit]
O=C(C1CC12CCCC2)N1CCC(CO)(Cc2ccccc2Cl)CC1 (configuration not stated) 11.2 µM [fluorescent, side channel, partial curve]
COc1ccc(-c2csc(Nc3ccc(S(=O)(=O)Nc4cc(OC)nc(OC)n4)cc3)n2)cc1 14.1 µM [quencher, side channel, partial curve]
CCOC(=O)c1nnn(-c2nc(N3CCCC3)nc(N3CCCC3)n2)c1-c1ccccc1 2 µM [fluorescent, side channel, full curve, poor fit]
COc1c(O)cc2oc3cc(O)c(CC=C(C)C)c(O)c3c(=O)c2c1CC=C(C)C 2 µM [quencher, side channel, full curve] and 2.24 µM [quencher, side channel, full curve] and 3.16 µM [quencher, side channel, full curve]

FP activity change, negative = inhibition, inactive:
COC(=O)c1c(Cl)c2n3ccccc3c(C)c(-c3ccccc3)c-2c1C(=O)OC -17.8%
NCCCC[C@@H](N)C(=O)O 14.9%
CCOC(=O)c1ccc(-n2cc(C(=O)c3cccnc3)nn2)cc1 20.5%
O=C1C=C(N2CCCCCC2)C(=O)N1c1ccc(Cl)cc1 44.5%
CC1COc2ccccc2N1S(=O)(=O)c1ccc(Cl)cc1 (configuration not stated) 22.4%
O=C(Cc1ccc([N+](=O)[O-])cc1)NCc1cccnc1 -5.08%
O=C(COC(=O)c1cncc(Br)c1)NCC1CCCO1 (configuration not stated) -8.43%
Cc1ccc(P(C)(=O)c2ccc(C)cc2)cc1 0.597%
COc1ccc2c(c1)CCC1[C@@H]2CCC2(C)[C@@H](NCCCCCCN3C(=O)C=CC3=O)CC[C@@H]12 (some centres not stated) -3.8% [at 24.8 µM]
CSc1nsc(/C=C/Nc2ccc(C)cc2)c1C#N 5.42%
